In ChEMBL document CHEMBL4888484, “Replenishing the malaria drug discovery pipeline: Screening and hit evaluation of the MMV Hit Generation Library 1 (HGL1) against asexual blood stage Plasmodium falciparum ,using a nano luciferase reporter read-out” (2022):
The campaign covered roughly 150,000 compounds. About 540 (0.36%) showed an effect of 50% or more. The list shows a part of the results.

test system: Plasmodium falciparum; test: Primary screen in NF54 nanoGlo assay, in single point, at 2uM, 72h; a lower Z score goes with more inhibition; assay type: functional, Erythrocyte; details: timepoint 72 hour

Compound | % Inhibition | Z score
Cc1ncccc1NC(=O)C1CC(F)(F)C1 | -11% | 1.34
O=C(Nc1cccc2[nH]ccc12)N(CCC(F)(F)F)C1CCCCC1 | -13% | 1.88
Cc1csc(NC(=O)N(CC2CCCO2)C2CCS(=O)(=O)C2)n1 (stereo not drawn) | 2% | -0.27
CCN1C(=O)c2ccccc2N[C@@H]1c1cc2ccccc2nc1O | 9% | -1.68
Cc1nc(N2CCCC2)ncc1C(=O)N1CCN(c2ccccc2F)CC1 | -14% | 2.08
Fc1ccc([C@@H]2COCCN2Cc2nnc(C3CC3)o2)cc1 | -7% | 0.75
NS(=O)(=O)c1ccc(-c2nc(-c3cccnn3)no2)cc1 | -15% | 1.46
CN(Cc1cscn1)C(=O)Cn1c(C2CCCCC2)nc2ccccc21 | 2% | -0.24
O=C(Nc1cnn(CC(=O)N2CCC(O)(c3cccc(C(F)(F)F)c3)CC2)c1)c1ccco1 | -12% | 1.52
O=C1c2ccccc2N[C@H](c2cnc(N3CCCC3)nc2)N1CC(F)(F)F | -12% | 1.18
CCC(C)(C)NS(=O)(=O)c1cccs1 | -8% | 0.99
Cc1cncc(C(=O)OCCN(C)CC(F)(F)F)c1 | -2% | 0.16
CC(C)(C)N1CC[C@H](NC(=O)NCc2nc(-c3ccccc3F)cs2)C1 | 0% | -0.03
COc1ccc(NC(=O)c2sc(Nc3cc(C)ccn3)nc2C)cc1OC | -2% | 0.32
Cn1nc(C(=O)N2CCCC2(C)C)c(O)c1C(=O)N1CCCC1(C)C | 0% | 0.01
Cc1ncc(CS(=O)(=O)CC(=O)NCc2sccc2C)s1 | -7% | 1.13
Cc1nc(NC(=O)[C@H]2CC2(Cl)Cl)ccc1Br | -3% | 0.49
Cc1nnc([C@H](C)Nc2ccc(OCc3ccccc3)nc2)o1 | -11% | 1.39
Fc1cncnc1N1CCCN(c2ccc3nncn3n2)CC1 | 13% | -2.28
Cn1cc(C(NC(=O)c2cc3ncccn3n2)[C@H]2C[C@H](O)C2)cn1 (stereo partly drawn) | -13% | 2.13
CC(C)c1ccccc1OCC(O)CN1CCCN2CCCC2C1 (stereo not drawn) | 2% | -0.3
O=c1c2ccccc2nnn1C[C@H]1CC[C@H](C(=O)Nn2cnnc2)CC1 | 1% | -0.19
Cn1cc(-c2cc(-c3cnn(C)c3)n(S(=O)(=O)c3cccs3)n2)cn1 | 34% | -3.8
CCOC(=O)C1=C(C(=O)OCC)SC(=C2C(=S)C(C)(C)N(C(C)=O)c3ccccc32)S1 | -4% | 0.45
